Assay results: PMC6212790
This is one part of the list. At the low end of the ranking, values are background and their order means little.

What follows are sequences tested against T1, GST-Rok-C97-191 (UniProt O34857) (assay: protein binding microarray). Details: Rok is a gene silencer of Bacillus subtilis; high values mean tight binding; most listed sequences are background and not binding sites; double strand, one strand shown.
T1 sequence: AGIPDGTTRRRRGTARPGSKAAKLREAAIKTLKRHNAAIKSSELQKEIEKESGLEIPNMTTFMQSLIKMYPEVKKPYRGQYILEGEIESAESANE
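Note: rank score from −0.5 (least bound) to 0.5 (best bound).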

Row | Sequence | binding signal
1 | CGTGGCCC | -0.144 E-score
2 | CGGAGAAC | 0.0827 E-score
3 | ACGTGATA | 0.18 E-score
4 | ATATTGTG | 0.214 E-score
5 | CACCGTAG | -0.134 E-score
6 | GACAGTGA | -0.0283 E-score
7 | CGCAATGC | 0.00515 E-score
8 | AGTAACGA | 0.158 E-score
9 | GCTTCTAA | -0.0223 E-score
10 | GGTCAAAA | 0.0262 E-score
11 | CAGGGCGC | -0.346 E-score
12 | CGTTCGAA | 0.00753 E-score
13 | ATTCGGGA | -0.127 E-score
14 | CCGCATCA | -0.175 E-score
15 | CCCGGGAC | -0.264 E-score
16 | GCACTCGA | -0.0312 E-score
17 | AGCCACTA | -0.0182 E-score
18 | GCAATACC | 0.182 E-score
19 | TAGGCGGA | -0.195 E-score
20 | CCGGTTGA | -0.189 E-score
21 | GAGATCCC | -0.215 E-score
22 | CGCACTGC | 0.0347 E-score
23 | CCAAATAA | 0.0547 E-score
24 | CGCGGGAA | -0.102 E-score
25 | ATTTAGCG | 0.199 E-score

Row | Sequence | binding signal
26 | CCCATACG | -0.00324 E-score
27 | CGTCGCCA | -0.169 E-score
28 | ATATAAGC | 0.246 E-score
29 | AATTTTGC | 0.187 E-score
30 | CCCTCACC | -0.223 E-score
31 | AAGATCTT | 0.0434 E-score
32 | AGCTGAAC | -0.0772 E-score
33 | TCGTTGAA | 0.0633 E-score
34 | AAACAAGG | -0.221 E-score
35 | CGCCTGCC | -0.215 E-score
36 | TAGGTATA | 0.287 E-score
37 | CGACGCGA | -0.16 E-score
38 | AAGAAGTC | -0.0567 E-score
39 | GCTAGCAA | 0.243 E-score
40 | AGCGATAC | 0.0419 E-score
41 | TTAACAAA | 0.142 E-score
42 | GCGCCGAA | -0.219 E-score
43 | GCGCGCCC | -0.42 E-score
44 | AGCGTACA | 0.079 E-score
45 | AAAAAGTC | -0.0811 E-score
46 | GGTAATAA | 0.274 E-score
47 | GCTATCAC | 0.242 E-score
48 | GAGAGGTA | 0.0151 E-score
49 | ATGTGGGC | -0.229 E-score
50 | ACCGGAAA | -0.1 E-score

Row | Sequence | binding signal
51 | GCACCACA | 0.0153 E-score
52 | CTGCTGGA | -0.128 E-score
53 | AAAAAAAA | 0.124 E-score
54 | TCACGCAA | -0.0935 E-score
55 | GTAAAAAC | 0.317 E-score
56 | ACCATCGT | -0.223 E-score
57 | AGGGTCAA | -0.131 E-score
58 | GTTTTACA | 0.183 E-score
59 | ATCATGCA | -0.121 E-score
60 | CCGTTAAC | 0.0889 E-score
61 | AAGGACTA | -0.0152 E-score
62 | ATACCAAC | 0.216 E-score
63 | ACCGGTGA | -0.0892 E-score
64 | CCTGGCTA | -0.208 E-score
65 | AATACGCA | 0.0271 E-score
66 | ACCTCTTA | 0.191 E-score
67 | AGGTCATC | -0.184 E-score
68 | CAAATAAC | 0.213 E-score
69 | ACGTTGAC | -0.18 E-score
70 | ATCAGATC | -0.017 E-score
71 | CATATTCG | 0.013 E-score
72 | AGATTCAT | 0.222 E-score
73 | ATTTTCGA | 0.0387 E-score
74 | CCTTTGGA | -0.243 E-score
75 | CTGTCCTA | 0.0169 E-score

Row | Sequence | binding signal
76 | GGGACGAA | -0.212 E-score
77 | AGATCTGC | 0.0617 E-score
78 | CCTTTGGC | -0.32 E-score
79 | ATAGGCAG | 0.0945 E-score
80 | CTTTGGAC | -0.191 E-score
81 | GCGTACGC | 0.0483 E-score
82 | GGCTGACC | -0.187 E-score
83 | ATACTGAG | 0.0846 E-score
84 | CGTATGAA | 0.19 E-score
85 | ATCGCTTG | -0.0185 E-score
86 | ACTGTACC | 0.0681 E-score
87 | ATTACCGG | 0.105 E-score
88 | AGTCCGCC | -0.302 E-score
89 | CATGTAAG | -0.0321 E-score
90 | CAGATAAG | 0.105 E-score
91 | CGGACTCC | -0.205 E-score
92 | CGGATACC | 0.0204 E-score
93 | ACCTGTTG | -0.14 E-score
94 | ATTTAATC | 0.16 E-score
95 | CGGCTTGA | -0.00751 E-score
96 | ATCGGGGG | -0.419 E-score
97 | GACCGAAA | -0.00589 E-score
98 | CCTGCTAA | -0.086 E-score
99 | CTGCTGCC | -0.0976 E-score
100 | CCGACCCG | -0.291 E-score

Row | Sequence | binding signal
101 | ACACGCTC | -0.0114 E-score
102 | AGCAACCA | 0.0527 E-score
103 | CCGGTGTC | -0.252 E-score
104 | GAGATCTA | 0.255 E-score
105 | ACTACTAG | 0.361 E-score
106 | AAGCTAGG | -0.128 E-score
107 | AAATGCAA | 0.151 E-score
108 | CAGGATCA | -0.117 E-score
109 | ATTCGCGA | -0.0573 E-score
110 | CTAATACA | 0.238 E-score
111 | AGCGTGCC | -0.194 E-score
112 | CGGGTCGA | -0.259 E-score
113 | ACCTCTAG | -0.047 E-score
114 | AACGCCAG | -0.0768 E-score
115 | AATTTAGG | 0.137 E-score
116 | CACGTTCG | -0.0519 E-score
117 | CCGAGCAA | -0.00146 E-score
118 | GAAGCGAA | -0.00304 E-score
119 | GACTGAAA | -0.192 E-score
120 | GCTGACAA | 0.0398 E-score
121 | CTAATCAG | -0.189 E-score
122 | ACGGGTGC | -0.208 E-score
123 | ACGCCGGG | -0.244 E-score
124 | GATGCCTA | -0.0205 E-score
125 | TTTAGAAA | 0.175 E-score

Row | Sequence | binding signal
126 | GAGACACC | -0.228 E-score
127 | CCGATGTC | -0.213 E-score
128 | TAGCGATA | 0.209 E-score
129 | GATGCCGC | -0.271 E-score
130 | ATAATGTA | 0.405 E-score
131 | ACTCGCAC | -0.078 E-score
132 | CGTGAAGC | -0.266 E-score
133 | ACCCTTGG | -0.176 E-score
134 | CCATGACA | -0.0439 E-score
135 | ATGAACGG | 0.0111 E-score
136 | GGAATTTA | 0.241 E-score
137 | GACACTGA | -0.134 E-score
138 | ACTCAACG | -0.123 E-score
139 | GGATGATA | 0.113 E-score
140 | AGTCATGA | 0.0312 E-score
141 | AGTTACGA | 0.197 E-score
142 | GCTAGCTA | 0.119 E-score
143 | CTCCACAA | -0.145 E-score
144 | AGCAACGC | -0.185 E-score
145 | ACACTATC | 0.204 E-score
146 | AAAGATCT | 0.0493 E-score
147 | AGTGCTCG | -0.142 E-score
148 | ACGCTTCC | -0.177 E-score
149 | GGTTCCCA | -0.316 E-score
150 | CGTATCAG | -0.0859 E-score

Row | Sequence | binding signal
151 | CAGGACAG | -0.206 E-score
152 | GGTCGATA | 0.0618 E-score
153 | TGAAGTCA | -0.0476 E-score
154 | CAGGGGTA | 0.0989 E-score
155 | GACTGGGA | -0.0997 E-score
156 | GCCAAGTA | 0.072 E-score
157 | GAACCCTC | -0.268 E-score
158 | ATAAAGAC | -0.0384 E-score
159 | ATATAGCC | 0.135 E-score
160 | GCAGGCCC | -0.239 E-score
161 | GCGGTCTA | -0.0811 E-score
162 | AGTTGGGA | 0.0355 E-score
163 | CCCCGACG | -0.162 E-score
164 | ATGCTCGA | 0.0667 E-score
165 | ACTTTTAT | 0.271 E-score
166 | GGGGACCC | -0.278 E-score
167 | AATCCTGA | -0.0967 E-score
168 | CAGGACTC | -0.354 E-score
169 | CATCACCA | 0.054 E-score
170 | ATCATTGG | 0.0775 E-score
171 | CTAGAAAC | 0.34 E-score
172 | GACCTATC | 0.11 E-score
